# Laboratory results: PubChem BioAssay AID504466 (National Center for Advancing Translational Sciences (NCATS), 2011)
# The whole screen tested about 330,000 compounds, of which about 4,200 (1.3%) were called active. The inconclusive results got no clear call from the source; some entries with a clear call stand among them for comparison. Calls come from the whole dose curve; as a rule, active = well fitted activation curve with a large enough effect; inconclusive = small, poorly fitted or top-dose-only effect; inactive = no such curve, though single readings can be large or run the other way. Potencies beside an inconclusive call are fits to weak or partial responses and may not hold up.
# Experiment: qHTS screen for small molecules that induce genotoxicity in human embryonic kidney (HEK293T) cells expressing luciferase-tagged ELG1; note: nearly all actives have a fitted effect of over 60% in size
# Settings: HEK293T ELG1-luciferase reporter, luminescence, 16 h; series mostly up to 46 µM
# Procedure, shortened: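 16 hr compound incubation (37 °C, 5% CO2) of HEK293T cells carrying luciferase-tagged ELG1; luciferase then measured by ONE-Glo luminescence after 30 min at RT.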
# Potency is the fitted concentration of half-maximal effect; tags give direction and shape of the fitted curve.
row,Structure (SMILES),Potency
1,COc1ccc(C2Nc3ccccc3C(=O)N2c2ccccc2)cc1Cn1cc([N+](=O)[O-])cn1 (stereo not given),inactive
2,CC(C)c1ccc(C(C(=O)NC2CCCC2)N(C(=O)c2csnn2)C2CC2)cc1 (stereo not given),inactive
3,COc1ccc(Nc2ncnc3c2oc2ccccc23)cc1,active: 8.91 µM
4,CC(C)(C)c1ccc(C(CC(=O)O)NC(=O)Cc2ccccc2)cc1 (stereo not given),inactive
5,O=C1CCCC(=O)N1c1ccc(N2CCOCC2)c([N+](=O)[O-])c1,inactive
6,O=c1[nH]c2ccc(F)cc2[nH]c1=O,inactive
7,C/C(=N\NC(=O)c1cccc(F)c1)c1ccc(NC(=O)Cc2ccccc2)cc1,"inconclusive: 20.6 µM [activator, single point]"
8,COc1ccc(C(=O)COc2ccccc2C#N)cc1,"inconclusive: 18.3 µM [activator, partial curve, poor fit]"
9,Cc1ccc(-c2nc3ccc(Cl)cc3n2OC(C)C(=O)O)cc1 (stereo not given),"inconclusive: 0.326 µM [activator, full curve]"
10,Cc1ccc(NC(=O)CSc2n[nH]c(-c3ccco3)n2)cc1,"inconclusive: 29.1 µM [activator, partial curve, poor fit]"
11,Cc1ccc(S(=O)(=O)N2CCOCC2)cc1C(=O)OCC(=O)c1ccc(Br)cc1,inactive
12,CCn1cc(C(=O)Nc2ccccc2C(=O)OC)c(=O)c2ccc(C)nc21,"inconclusive: 2.59 µM [activator, partial curve]"
13,COc1ccccc1Nc1nnc(SCC2CCCCO2)s1 (stereo not given),"inconclusive: 0.517 µM [activator, partial curve, poor fit]"
14,Cc1cc(OCC(=O)N2CCOCC2)ccc1[N+](=O)[O-],"inconclusive: 16.4 µM [activator, partial curve]"
15,COCCN(CC(=O)Nc1cccc(C)c1C)C(=O)c1cc(-c2cccs2)nn1-c1ccccc1,inactive
16,O=C(O)c1cc([N+](=O)[O-])c(NCCC2=CCCCC2)c([N+](=O)[O-])c1,"inconclusive: 1.03 µM [activator, single point]"
17,CCOC(=O)c1ccc(NC(=O)NC2CC3CCC(C2)N3C(=S)NC)cc1 (stereo not given),inactive
18,Cc1csc(NC(=O)Cc2ccccc2Cl)n1,"inconclusive: 20.6 µM [activator, single point]"
19,COc1cc(/C=C/C(=O)OCC(=O)Nc2ccc(NC(C)=O)cc2)cc(S(=O)(=O)N2CCc3ccccc32)c1OC,inactive
20,c1ccc(CCN2CN=C(Nc3nc4ccccc4o3)NC2)cc1,active: 18.4 µM
21,COc1ccc(-c2cn3c4c(sc3n2)CCCC4)cc1,"inconclusive: 0.891 µM [activator, full curve, poor fit]"
22,CC(=O)Nc1sc(C)c(C)c1C(=O)OCC(=O)N(CC(C)C)c1c(N)n(Cc2ccccc2)c(=O)[nH]c1=O,"inconclusive: 3.66 µM [activator, partial curve, poor fit]"
23,CCN(CC)C(=O)Sc1cccc2cccnc12,"inconclusive: 18.4 µM [activator, single point]"
24,O=C(Cc1cccc2ccccc12)NCC(=O)Nc1ccccc1F,inactive

row,Structure (SMILES),Potency
1,Nc1nc2ccc(OC(F)(F)F)cc2s1,inactive
2,Cc1cc(OCC(=O)Nc2ccc(CCO)cc2)c2c(C)c(C)c(=O)oc2c1,"inconclusive: 23.1 µM [activator, partial curve, poor fit]"
3,COc1cccc(C(=O)/C=C/Nc2cc(C)ccc2O)c1,"inconclusive: 23.1 µM [activator, single point]"
4,N#Cc1c(NC(=O)c2cnccn2)sc2c1CCCC2,"inconclusive: 11.6 µM [activator, partial curve]"
5,CCCc1nc([N+](=O)[O-])c(S(=O)(=O)c2ccccc2)n1CC(C)C,"inconclusive: 32.6 µM [activator, partial curve, poor fit]"
6,COCCN(CCOC)C(=O)c1ccc(CSc2nc3ccccc3s2)cc1,inactive
7,CC(C)(C)c1ccc(-c2nc(C#N)c(NCc3cccnc3)o2)cc1,"inconclusive: 11.6 µM [activator, partial curve, poor fit]"
8,CC(=O)c1ccc(NC(=O)CSCCO)cc1,"inconclusive: 16.4 µM [activator, single point]"
9,O=C(NC1CCCCC1)c1cc(-c2cccc(Cl)c2)on1,"inconclusive: 16.4 µM [activator, partial curve]"
10,CC(=O)c1c(C)[nH]c(C(=O)NCc2ccccn2)c1C,"inconclusive: 23.1 µM [activator, partial curve, poor fit]"
11,COc1ccc(NC(=S)NNC(=O)c2cccs2)cc1,"inconclusive: 23.1 µM [activator, partial curve, poor fit]"
12,COC(=O)c1ccc(CNC(=O)c2ccc3oc(C(C)C)nc3c2)cc1,active: 20.6 µM
13,O=C(NN=C1C2CC3CC1CC(Cl)(C3)C2)c1cccs1,"inconclusive: 29.1 µM [activator, single point]"
14,O=C(c1cccc(S(=O)(=O)N2CCN(c3ccccc3)CC2)c1)N1CCCCCCC1,"inconclusive: 25.9 µM [activator, single point]"
15,C/C(=N/NC(=O)c1ccoc1C)c1ccc(NC(=O)C2CCCC2)cc1,"inconclusive: 7.31 µM [activator, partial curve, poor fit]"
16,CC1CCc2nc(/C(C#N)=C/c3ccncc3)sc2C1 (stereo not given),"inconclusive: 7.3 µM [activator, partial curve, poor fit]"
17,CCN(CC(=O)NCc1cccs1)C(=O)c1cc(Br)ccc1O,inactive
18,CCn1ncc(/C=N/NC(=O)c2cc(Cl)ccc2OC)c1C,inactive
19,C[C@@H](NC(=O)c1[nH]cnc1C(=O)Nc1cccc(Cl)c1)c1ccccc1,inactive
20,Oc1c(-c2cc(-c3ccco3)[nH]n2)ccc2ccccc12,"inconclusive: 4.61 µM [activator, partial curve]"
21,COC(=O)c1ccccc1NC(=O)C1COc2ccccc2O1 (stereo not given),"inconclusive: 6.51 µM [activator, partial curve]"
22,C=CCn1cccc(C(=O)Nc2ccc(N(C)C)cc2)c1=O,"inconclusive: 10.3 µM [activator, partial curve, poor fit]"
23,COc1ccccc1N(C)S(=O)(=O)c1ccc(C(=O)Nc2cc(F)ccc2C)cc1,inactive
24,COc1ccc(NC(=O)CN2CCC(C)CC2)cc1,"inconclusive: 18.4 µM [activator, partial curve, poor fit]"

row,Structure (SMILES),Potency
1,CC1(C)CCCN(Cc2c(O)ccc3c(=O)c(-c4nc5ccccc5s4)c(N)oc23)C1,"inconclusive: 29.1 µM [activator, partial curve, poor fit]"
2,CC[C@]12c3[nH]c4cc(CCC(=O)N(C)C)ccc4c3CCN1C(=O)[C@@H](CC(=O)NCCc1ccccn1)C[C@@H]2C(=O)N1CCN(C(=O)c2ccco2)CC1,"inconclusive: 23.1 µM [activator, partial curve, poor fit]"
3,CCOC(=O)/C=C/C(=O)Nc1ccc(Oc2ccccc2)cc1,inactive
4,COc1ccc(CN(C)C(=O)c2cccc(S(=O)(=O)N3CCN(c4ccccc4)CC3)c2)c(OC)c1OC,"inconclusive: 5.8 µM [activator, single point]"
5,COC(=O)CCC(=O)COc1ccccc1C#N,"inconclusive: 20.6 µM [activator, partial curve, poor fit]"
6,Cc1cccc2cc(/C=N/NC(=O)c3ccccc3O)c(Cl)nc12,inactive
7,COc1ccc(OC)c(CCNC(=O)c2ccc3c(=O)[nH]c4c(C(=O)NC(C)C)sc(=S)n4c3c2)c1,inactive
8,O=c1[nH]c2ccccc2nc1/C=C/c1ccc(Cl)cc1,active: 9.2 µM
9,O=C(Nc1ccc(OCc2ccccc2)cc1)c1cccs1,"inconclusive: 13 µM [activator, partial curve]"
10,Cc1cc(C(=O)CNCc2ccco2)c(C)n1-c1ccc(F)cc1,"inconclusive: 2.31 µM [activator, partial curve]"
11,CC(=O)Oc1cccc(NC(=O)c2ccc3c(c2)C(=O)N(CC(C)C)C3=O)c1,"inconclusive: 23.1 µM [activator, single point]"
12,COc1ccc(/C=C2\C(=O)ON=C2c2ccccc2)cc1,"inconclusive: 23.1 µM [activator, single point]"
13,CSc1ccccc1NC(=O)c1cc(-c2cccnc2)nc2ccc(Br)cc12,inactive
14,N#C/C(=C\c1ccc([N+](=O)[O-])cc1)c1ccccn1,"inconclusive: 9.2 µM [activator, partial curve, poor fit]"
15,O=C(O)c1ccc(N/N=C/c2ccc(-c3ccccc3Cl)o2)cc1,active: 1.83 µM
16,CC(=N/O)/C(C)=N\NC(=O)c1ccccn1,"inconclusive: 16.4 µM [activator, partial curve, poor fit]"
17,O=c1sc(/C=N/Nc2ccccc2)c(Cl)n1Cc1ccccc1,"inconclusive: 23.1 µM [activator, partial curve, poor fit]"
18,COc1ccc(C(=O)Nc2cc(C)on2)cc1OC,inactive
19,COc1ccccc1OCC(=O)Nc1ccc2c(c1)OCCO2,"inconclusive: 20.6 µM [activator, partial curve]"
20,Cn1nnnc1SCc1ccc(C(=O)Nc2nccs2)cc1,"inconclusive: 14.6 µM [activator, partial curve]"
21,CCC(=O)NCc1cc(-c2nn(C)c(=O)c3ccccc23)ccc1OC,"inconclusive: 29.1 µM [activator, partial curve, poor fit]"
22,COc1ccc(NC(=O)NC2CCCCCCC2)cc1OC,"inconclusive: 18.3 µM [activator, partial curve, poor fit]"
